Measured values published in the supplement of paper PMC6135742.
Several values for one entry are separate records, joined by “and”; a condition that tells them apart may be missing. Identical values can stand only once. Counter-ions that a name gives are not always drawn. ± gives the standard deviation of the averaged measurements. The full ranking holds about 2,600 compounds; the median of “MBP+ mature oligodendrocyte number relative to DMSO vehicle control” is about -0.34, and the highest 2% start at about 13. The list shows a part of the results.
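Further: 10 µM single dose with 3-day oligodendrocyte differentiation.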

The molecules below were run on jimpy (Plp1 jimpy) mouse iPSC-derived oligodendrocyte progenitor cells (assay: MBP+ mature oligodendrocyte number relative to DMSO vehicle control (SDs above negative control mean); higher = more surviving jimpy oligodendrocytes (rescue)). Settings: 10 µM; 3 days.
In the case of `COc1cc2c(cc1O)[C@@H](Cc1ccc(O)c(Oc3ccc(C[C@@H]4c5cc(OC)c(OC)cc5CCN4C)cc3)c1)N(C)CC2` [Daurisoline], the “MBP+ mature oligodendrocyte number” value is reported as less than -3.85.
`C[C@@H]1CN(c2c(F)c(N)c3c(=O)c(C(=O)O)cn(C4CC4)c3c2F)C[C@H](C)N1` [Sparfloxacin] was tested, and the “MBP+ mature oligodendrocyte number” value was -0.917.
With `Cn1c(=O)c2[nH]c(-c3ccc(S(=O)(=O)O)cc3)nc2n(C)c1=O` [8-(p-Sulfophenyl)theophylline] the “MBP+ mature oligodendrocyte number” value was -0.119.
`C[C@@H]1O[C@@H]1P(=O)(O)O` [Phosphomycin disodium] was tested, and the “MBP+ mature oligodendrocyte number” value was -0.284.
For `CC1(C)[C@@H](O[C@H]2O[C@H](C(=O)O)[C@@H](O)[C@H](O)[C@H]2O[C@@H]2O[C@H](C(=O)O)[C@@H](O)[C@H](O)[C@H]2O)CC[C@]2(C)[C@H]3C(=O)C=C4[C@@H]5C[C@@](C)(C(=O)O)CC[C@]5(C)CC[C@@]4(C)[C@]3(C)CC[C@@H]12` [Glycyrrhizic Acid], the “MBP+ mature oligodendrocyte number” value was -0.388.
For `CC1(C)[C@@H](O[C@H]2O[C@H](C(=O)O)[C@@H](O)[C@H](O)[C@H]2O[C@@H]2O[C@H](C(=O)O)[C@@H](O)[C@H](O)[C@H]2O)CC[C@]2(C)[C@H]3C(=O)C=C4[C@@H]5C[C@@](C)(C(=O)O)CC[C@]5(C)CC[C@@]4(C)[C@]3(C)CC[C@@H]12` [Ammonium Glycyrrhizinate], the “MBP+ mature oligodendrocyte number” value was -1.17.
In the case of `COc1cc(NC(=O)c2ccc(-c3ccc(Cl)cc3)o2)cc(OC)c1`, the “MBP+ mature oligodendrocyte number” value is reported as 3.68.
For `c1ccc2c(Oc3nc(Nc4ccc(N5CCOCC5)cc4)c4ncn(C5CCCCC5)c4n3)cccc2c1` [Purmorphamine], the “MBP+ mature oligodendrocyte number” value was -5.53.
For `C[C@]12C=CC(=O)C=C1CC[C@@H]1[C@@H]2C(=O)C[C@@]2(C)[C@H]1CC[C@]2(O)C(=O)CO` [Prednisone], the “MBP+ mature oligodendrocyte number” value was -1.19.
With `C[C@]12C=CC(=O)C=C1CC[C@@H]1C2=CC[C@]2(C)[C@@H](C(=O)CN3CCN(c4cc(N5CCCC5)nc(N5CCCC5)n4)CC3)CC[C@@H]12` the “MBP+ mature oligodendrocyte number” value was 2.86.
For `O=c1ccc2c(OCCCCc3ccccc3)c3ccoc3cc2o1` [Psora-4], the “MBP+ mature oligodendrocyte number” value was 1.65.
`CCn1cc(C(=O)O)c(=O)c2cc(F)c(N3CCNC(C)C3)c(F)c21` (stereo not given) [Lomefloxacin hydrochloride] was tested, and the “MBP+ mature oligodendrocyte number” value was -0.676.
With `CCn1cc(C(=O)O)c(=O)c2cc(F)c(N3CCNC(C)C3)c(F)c21` (stereo not given) [Lomefloxacin HCl] the “MBP+ mature oligodendrocyte number” value was 0.619.
For `NC(=O)c1cc[n+](CC2=C(C(=O)O)N3C(=O)[C@@H](NC(=O)C(c4ccccc4)S(=O)(=O)[O-])[C@H]3SC2)cc1` (stereo not given in full) [Cefsulodin sodium salt hydrate], the “MBP+ mature oligodendrocyte number” value was -0.551.
For `CS(=O)(=O)Nc1ccc([N+](=O)[O-])cc1Oc1ccccc1` [Nimesulide], the “MBP+ mature oligodendrocyte number” value was 0.946 ± 1.2.
For `O=C(O)C1=CCNCC1` [Isoguvacine hydrochloride], the “MBP+ mature oligodendrocyte number” value was 0.764.
In the case of `CNC(=C[N+](=O)[O-])NCCSCc1csc(CN(C)C)n1` [Nizatidine], the “MBP+ mature oligodendrocyte number” value is reported as 1.15.
For `CC(C)CN(C[C@@H](O)[C@H](Cc1ccccc1)NC(=O)O[C@H]1CCOC1)S(=O)(=O)c1ccc(N)cc1` [Amprenavir], the “MBP+ mature oligodendrocyte number” value was 1.33.
For `OC[C@H]1O[C@@H](OCCc2ccc(O)cc2)[C@H](O)[C@@H](O)[C@@H]1O` [Salidroside], the “MBP+ mature oligodendrocyte number” value was 2.8.
In the case of `CNCCC=C1c2ccccc2CCc2ccccc21` [Nortriptyline hydrochloride], the “MBP+ mature oligodendrocyte number” value is reported as -3.89.
In the case of `C[C@H]1[C@H](NC(=O)/C(=N\OC(C)(C)C(=O)O)c2csc(N)n2)C(=O)N1S(=O)(=O)O` [Aztreonam], the “MBP+ mature oligodendrocyte number” value is reported as 2.77.
For `C=CCN1CCc2c(cc(O)c(O)c2Cl)C(c2ccccc2)C1` (racemic) [(±)-Chloro-APB hydrobromide], the “MBP+ mature oligodendrocyte number” value was -2.95.
With `CCc1c2c(nc3ccc(OC(=O)N4CCC(N5CCCCC5)CC4)cc13)-c1cc3c(c(=O)n1C2)COC(=O)[C@]3(O)CC` [Irinotecan HCl Trihydrate] the “MBP+ mature oligodendrocyte number” value was -3.63.
With `CCc1c2c(nc3ccc(OC(=O)N4CCC(N5CCCCC5)CC4)cc13)-c1cc3c(c(=O)n1C2)COC(=O)[C@]3(O)CC` [Irinotecan] the “MBP+ mature oligodendrocyte number” value was -3.82.
In the case of `Cc1ccc(/C(=C\CN2CCCC2)c2ccccn2)cc1` [Triprolidine hydrochloride], the “MBP+ mature oligodendrocyte number” value is reported as 1.11.
For `C=C1/C(=C\C=C2/CCC[C@]3(C)[C@@H]([C@H](C)CCCC(C)(C)O)CC[C@@H]23)C[C@@H](O)C[C@@H]1O` [Calcitriol], the “MBP+ mature oligodendrocyte number” value was -2.6.
With `Cc1c(Cl)cccc1Nc1ncccc1C(=O)O` [Clonixin] the “MBP+ mature oligodendrocyte number” value was -0.433.
With `CCC[C@H](NC(=O)/C(C#N)=C/c1cccc(Br)n1)c1ccccc1` [Degrasyn (WP1130)] the “MBP+ mature oligodendrocyte number” value was less than -4.81.
`CCOc1cc2ncc(C#N)c(Nc3ccc(OCc4ccccn4)c(Cl)c3)c2cc1NC(=O)/C=C/CN(C)C` [Neratinib (HKI-272)] was tested, and the “MBP+ mature oligodendrocyte number” value was less than -4.81.
`Cc1cccc(Nc2cc(Cl)nc(SCC(=O)O)n2)c1C` was tested, and the “MBP+ mature oligodendrocyte number” value was 2.37.
With `Nc1ncnc2c1ncn2[C@@H]1O[C@H](COP(=O)(O)CP(=O)(O)OP(=O)(O)O)[C@H](O)C1O` (stereo partly drawn) [alpha,beta-Methylene adenosine 5'-triphosphate dilithium] the “MBP+ mature oligodendrocyte number” value was -1.15.
In the case of `O=C(N/N=C/c1ccc([N+](=O)[O-])o1)c1ccc(O)cc1` [Nifuroxazide], the “MBP+ mature oligodendrocyte number” value is reported as -2.72.
With `NC(=O)c1ncn([C@@H]2O[C@H](CO)[C@@H](O)[C@H]2O)c1O` [Mizoribine] the “MBP+ mature oligodendrocyte number” value was 0.458.
`Cc1cn([C@@H]2C[C@@H](O)[C@H](CO)O2)c(=O)[nH]c1=O` [Telbivudine] was tested, and the “MBP+ mature oligodendrocyte number” value was -0.0169.
For `Cc1ccc(C(=O)Nc2ccc(S(=O)(=O)O)c3cc(S(=O)(=O)O)cc(S(=O)(=O)O)c23)cc1NC(=O)c1cccc(NC(=O)Nc2cccc(C(=O)Nc3cc(C(=O)Nc4ccc(S(=O)(=O)O)c5cc(S(=O)(=O)O)cc(S(=O)(=O)O)c45)ccc3C)c2)c1` [Suramin sodium salt], the “MBP+ mature oligodendrocyte number” value was -1.35.
In the case of `CCc1cc(C(N)=S)ccn1` [Ethionamide], the “MBP+ mature oligodendrocyte number” value is reported as 2.14.
`OCc1ccc(O[C@@H]2O[C@H](CO)[C@@H](O)[C@H](O)[C@H]2O)cc1` [Gastrodin] was tested, and the “MBP+ mature oligodendrocyte number” value was 1.18.
In the case of `O=C(NC(NC(=S)Nc1ccc(F)c([N+](=O)[O-])c1)C(Cl)(Cl)Cl)C(c1ccccc1)c1ccccc1` (stereo not given), the “MBP+ mature oligodendrocyte number” value is reported as -5.76.
With `Cn1cc(C2=C(c3ccc(Cl)cc3Cl)C(=O)NC2=O)c2ccccc21` the “MBP+ mature oligodendrocyte number” value was 22.4 and 12.6.
In the case of `O=c1c(-c2ccc(O)cc2)coc2cc(O)cc(O)c12` [Genistein], the “MBP+ mature oligodendrocyte number” value is reported as 1.02 ± 1.6.
